Hit rate of the full screen: of about 94,000 compounds, about 6,200 (6.6%) were called active. This list was built around the results that the source calls inconclusive (neither active nor inactive); the mix of calls is not that of the screen. Calls come from the whole dose curve; as a rule, active = well fitted inhibition curve with a large enough effect; inconclusive = small, poorly fitted or top-dose-only effect; inactive = flat fitted curve, though single readings scatter. Potencies beside an inconclusive call are fits to weak or partial responses and may not hold up.
Assay: Cytotoxic Profiling in HEK 293 Cell Line of Diverse Libraries Using Quantitative High-Throughput Screening; note: nearly all actives have a fitted effect of over 60% in size
Details: HEK 293 viability, ATP luminescence (CellTiter-Glo), 48-72 h; series mostly up to 115 µM
Method in brief: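 HEK 293 cells at 250 cells/well were exposed to compounds by pintool transfer for 48 or 72 hr at 37 degree Celsius, 5% CO2. Viability was read as ATP-coupled luminescence with CellTiter-Glo after 10 min at room temperature.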
Potency is the fitted concentration of half-maximal effect; tags give direction and shape of the fitted curve.

Row | Structure (SMILES) | Potency
1 | COc1ccc(C(=O)N2CCC(c3noc(COc4ccc(C)cc4)n3)CC2)cn1 | inconclusive: 44.7 µM [inhibitor, partial curve, poor fit]
2 | COc1cccc([S+](=O)([O-])N2CCC(N3C(=O)c4c(c(C)nn4-c4ccccc4)C3C)C2)c1 (stereo unspecified) | inconclusive: 25.1 µM [inhibitor, full curve]
3 | O=C(c1ccsc1)N1CCC(Oc2cccc(F)c2)C1 (stereo unspecified) | inconclusive: 79.4 µM [inhibitor, partial curve, poor fit]
4 | COc1ccc(-c2cnc3[nH]cc(CC(=O)NC4CCC(O)CC4)c3c2)cc1 (stereo unspecified) | inconclusive: 89.1 µM [inhibitor, partial curve, poor fit]
5 | CC1(C)[C@H](Cc2cc(COc3ccccc3)on2)C[C@@H]1NC(=O)COc1ccccc1 | active: 50.1 µM
6 | CN(C)C[C@@H]1CN(Cc2ccccn2)C[C@H]1NC(=O)c1ccc2cc[nH]c2c1 | inconclusive: 79.4 µM [inhibitor, single point]
7 | c1cc(CN2CCNc3cc(-c4ccsc4)ncc3C2)ccn1 | inconclusive: 100 µM [inhibitor, partial curve]
8 | Cc1nn(-c2ccccc2)c2c1C(C(C)C)N(C1CCN(C(=O)c3ccccc3)CC1)C2=O (stereo unspecified) | active: 44.7 µM
9 | O=C(c1ccoc1)N1CCC(Cc2nc(C3CCOCC3)no2)CC1 | inactive
10 | COc1ccc(-c2cc(N3CCC(NC(=O)Cc4ccccc4OC)CC3)n[nH]2)cc1 | inconclusive: 89.1 µM [inhibitor, single point]
11 | O=C(O)C1=NOC2CN(Cc3ccc(C(F)(F)F)cc3)CC12 (stereo unspecified) | inactive
12 | COc1ccc(NC(=O)Nc2cccc(-c3ccc(N4CCCCC4)nn3)c2)c(OC)c1 | inconclusive: 10 µM [inhibitor, full curve]
13 | CC(C)CNc1ccc2c(n1)C(C)(C(=O)N1CCOCC1)CN(Cc1ccccc1)C2 (stereo unspecified) | inconclusive: 112 µM [inhibitor, partial curve, poor fit]
14 | COc1ccc(-c2cccc(C(=O)N3CCN(C(=O)Nc4ccccc4)CC3)c2)nn1 | inactive
15 | CCOC(=O)C1CCCN(C(=O)c2ccc3nc(-c4cccnc4)oc3c2)C1 (stereo unspecified) | inconclusive: 31.6 µM [inhibitor, partial curve, poor fit]
16 | CCc1ccccc1OCC(=O)c1ccc2c(c1)N(CC(=O)NCCCOC)C(=O)CO2 | inconclusive: 79.4 µM [inhibitor, single point]
17 | COc1ccc(NC(=O)c2cc3n(n2)CC(c2ccc4c(c2)OCO4)OC3)cc1 (stereo unspecified) | active: 44.7 µM
18 | Cn1cccc1-c1noc(C2CCN(C(=O)CCCc3ccccc3)C2)n1 (stereo unspecified) | inconclusive: 56.2 µM [inhibitor, partial curve, poor fit]
19 | O=C(NC1CCCCCC1)C1CCCN(Cc2cccc(-c3cccs3)c2)C1 (stereo unspecified) | inconclusive: 44.7 µM [inhibitor, partial curve, poor fit]
20 | O=C(c1cccc(OC2CN(CC3CC=CCC3)C2)c1)N1CCCC1 (stereo unspecified) | inconclusive: 79.4 µM [inhibitor, partial curve, poor fit]
21 | CN(C(=O)C1CC1)C1CCc2ccccc21 (stereo unspecified) | inconclusive: 100 µM [inhibitor, partial curve, poor fit]
22 | CCN(C)c1ccnc(N2CC[C@@H]3C[C@H](N4CCOCC4)CC[C@@]3(COC)C2)n1 | inconclusive: 56.2 µM [inhibitor, partial curve, poor fit]

Row | Structure (SMILES) | Potency
23 | CN1c2cc(C(=O)Nc3cccc(Cl)c3)ccc2C(=O)N2CCCCCC21 (stereo unspecified) | inconclusive: 44.7 µM [inhibitor, partial curve, poor fit]
24 | O=C(C[C@@H]1CCNC[C@@H]1Cc1cc(CC2CCCCC2)on1)NC1CC1 | inactive
25 | Cc1nc(-c2cccc(Cl)c2)n(CC(=O)Nc2ccc(F)cc2)c(=O)c1CCO | active: 39.8 µM
26 | CCCN1CCc2[nH]cnc2C12CCN(C(=O)CC1C=CS(=O)(=O)C1)CC2 (stereo unspecified) | inactive
27 | O=C1NCCCc2[nH]c(-c3cnn(-c4cccc(F)c4)c3)nc21 | inconclusive: 79.4 µM [inhibitor, single point]
28 | Cc1ccsc1C(=O)N1CCCn2cc(-c3cccc(C#N)c3)nc21 | inconclusive: 44.7 µM [inhibitor, partial curve, poor fit]
29 | COc1ccc(-c2[nH]nc3ncc(-c4cccc(CO)c4)nc23)c(C)c1 | inconclusive: 44.7 µM [inhibitor, full curve, poor fit]
30 | Cc1ccc(C(=O)NCCn2cccc2-c2nc(-c3ccc4c(c3)OCO4)no2)cc1 | inactive
31 | COc1ccc2[nH]c(=O)c(CCC(=O)NCCc3ccc(S(N)(=O)=O)cc3)cc2c1 | inconclusive: 89.1 µM [inhibitor, single point]
32 | O=C(CC(c1ccc(F)cc1)c1cn(Cc2ccccc2)c2ccc([N+](=O)[O-])cc12)N1CCOCC1 (stereo unspecified) | inconclusive: 22.4 µM [inhibitor, full curve]
33 | O=C(CCc1cnccn1)N1CCC(CCC(=O)N2CCC(Cc3ccccc3)CC2)CC1 | inconclusive: 56.2 µM [inhibitor, partial curve, poor fit]
34 | CCc1nc(-c2c3n(c(=O)n(CC(=O)OC)c2=O)CCCC3)no1 | inactive
35 | COc1ccc(C(=O)N2CCCC(n3cc(-c4nc(C)no4)nn3)C2)cc1F (stereo unspecified) | inactive
36 | CCOCC1(C)COc2ccc(C(=O)Nc3ccccc3)cc2N1 (stereo unspecified) | inconclusive: 100 µM [inhibitor, partial curve]
37 | COc1ccccc1CNc1ncncc1-c1nc(-c2ccccc2)no1 | inactive
38 | Cc1cc(C)n(CC(=O)NCc2cc(N3CCOCC3)ncn2)c(=O)n1 | inconclusive: 39.8 µM [inhibitor, single point]
39 | CCCC(=O)Nc1cnc(-c2ccc(C)cc2)nc1 | inconclusive: 100 µM [inhibitor, single point]
40 | CS(=O)(=O)c1ccc(CN2C[C@@H]3OCC(=O)N(c4ccccc4)[C@@H]3C2)cc1 | inconclusive: 89.1 µM [inhibitor, partial curve, poor fit]
41 | O=C(c1ccco1)N1CCN(C(=O)C2CCc3ncc(-c4ccc(F)cc4)n3C2)CC1 (stereo unspecified) | inconclusive: 50.1 µM [inhibitor, partial curve, poor fit]
42 | O=C(Nc1ccnn1C1CCN(Cc2ccc(-c3ccco3)cc2)CC1)C1CC1 | inactive
43 | Cc1ccccc1C(=O)NC1CCN(c2cc(-c3ccc(F)cc3)[nH]n2)C1 (stereo unspecified) | inconclusive: 70.8 µM [inhibitor, partial curve, poor fit]
44 | Cc1ccc(CNC(=O)N2CCCC2c2nc(CCOc3ccc(F)cc3)no2)cc1 (stereo unspecified) | inconclusive: 50.1 µM [inhibitor, partial curve, poor fit]

Row | Structure (SMILES) | Potency
45 | COc1cc(OC)cc(C(=O)N[C@@H]2COCC[C@@H]2Oc2cccc(F)c2)c1 | inactive
46 | COC(=O)c1cccc(C(=O)N2CCC(Cc3nc(-c4ccc(OC)cc4)no3)CC2)c1 | active: 56.2 µM
47 | FC(F)(F)Oc1ccc(CN2CCC3(CC2)CC(c2cccc(C(F)(F)F)c2)=NO3)cc1 | inconclusive: 79.4 µM [inhibitor, partial curve, poor fit]
48 | CCOCCOC1CCN(C(=O)NCc2ccccc2)CC1 | inactive
49 | O=C(NCc1ccccc1)c1ccccc1OC1CN(Cc2ccsc2)C1 | inconclusive: 50.1 µM [inhibitor, partial curve, poor fit]
50 | O=[S+]([O-])(c1ccccc1)N1CC2(CCCN2C2COC2)Cc2ccccc21 (stereo unspecified) | inactive
51 | CC(C)CC(=O)N1C[C@@H](Oc2ccccc2)C[C@@H]1C(=O)N1CCOCC1 | inconclusive: 63.1 µM [inhibitor, partial curve, poor fit]
52 | N#Cc1ccc(CN2CCCC3(CC(c4cccc(C(F)(F)F)c4)=NO3)C2)cc1 (stereo unspecified) | inconclusive: 35.5 µM [inhibitor, partial curve]
53 | O=C(CN1C(=O)COc2ccc(C(=O)COc3ccccc3Cl)cc21)NCCc1ccccc1 | inconclusive: 56.2 µM [inhibitor, partial curve, poor fit]
54 | CCOc1ccccc1CN1CCC2(CCN(C(=O)C3CCCC3)CC2)Oc2ccccc21 | active: 35.5 µM
55 | CC(C)(C)c1nc(C(=O)NCc2cccnc2)n2ccccc12 | inconclusive: 8.91 µM [inhibitor, full curve, poor fit]
56 | O=C(Nc1nc2c(s1)CCCC2)C1CC(=O)N(c2n[nH]c3cccc(F)c23)C1 (stereo unspecified) | inconclusive: 89.1 µM [inhibitor, single point]
57 | O=C(c1cc(F)ccc1F)N1CCCCCC1c1nnc(-c2ccccc2)o1 (stereo unspecified) | inconclusive: 50.1 µM [inhibitor, partial curve, poor fit]
58 | O=C1CCC2(C(=O)N3CCOCC3)CCCC=C2N1c1ccccc1 (stereo unspecified) | inactive
59 | CN1CC(C(=O)NCc2cccc(F)c2)NC1=O (stereo unspecified) | inactive
60 | CC[C@H]1CN(S(=O)(=O)c2ccc(OC)cc2)CC[C@H]1CC(=O)Nc1nccs1 | inconclusive: 126 µM [inhibitor, single point]
61 | O=C(CSc1ccccn1)NC1CC(=O)N(C2Cc3ccccc3C2)C1 (stereo unspecified) | inactive
62 | CC(C)NC(=O)c1ccc2nnc(-c3ccc(Cl)cc3)n2c1 | inactive
63 | CC(C)N1C[C@H](O)C[C@H]1c1nnc2n1CCN(C(=O)CCC1CCCC1)C2 | inactive
64 | NCc1cccc(-c2cc(C(F)(F)F)ccc2Cl)c1 | active: 70.8 µM
65 | COC(=O)N1CCCC(C(=O)N2CCC(c3nc4ccncc4[nH]3)C2)C1 (stereo unspecified) | inactive
66 | COCC(=O)N[C@H]1C[C@@H](Cc2cc(-c3ccc(OC)cc3)on2)C1(C)C | active: 35.5 µM

From PubChem BioAssay AID1345083 (National Center for Advancing Translational Sciences (NCATS), 2018)
